# Assay results published in PubChem BioAssay AID1461 (National Center for Advancing Translational Sciences (NCATS), 2008).
# Hit rate of the full screen: of about 220,000 compounds, about 2,300 (1%) were called active. This list was built around the results that the source calls inconclusive (neither active nor inactive); the mix of calls is not that of the screen. Calls follow the shape of the dose curve; as a rule, active = well fitted inhibition curve with a large enough effect; inconclusive = small, poorly fitted or top-dose-only effect, or effect the other way; inactive = no such curve, though single readings can be large or run the other way. Potencies of inconclusive entries are left out as doubtful fits.
# Target: Neuropeptide S receptor (Homo sapiens) (UniProt Q6W5P4)
# Chain of UniProt Q6W5P4 (Q6W5P4 whole entry, looked up): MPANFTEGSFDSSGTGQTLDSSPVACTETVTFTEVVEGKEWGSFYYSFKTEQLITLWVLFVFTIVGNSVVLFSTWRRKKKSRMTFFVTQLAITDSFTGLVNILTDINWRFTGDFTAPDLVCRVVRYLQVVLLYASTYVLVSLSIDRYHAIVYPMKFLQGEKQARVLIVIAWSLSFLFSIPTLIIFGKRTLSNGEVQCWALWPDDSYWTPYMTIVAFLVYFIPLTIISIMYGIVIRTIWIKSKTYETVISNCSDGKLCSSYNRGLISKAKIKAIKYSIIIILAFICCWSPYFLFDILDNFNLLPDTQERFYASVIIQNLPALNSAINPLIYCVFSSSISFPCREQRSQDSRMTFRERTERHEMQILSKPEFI
# Experiment: qHTS Assay for Antagonists of the Neuropeptide S Receptor: cAMP Signal Transduction; also: nearly all actives have a fitted effect of over 50% in size
# Conditions: CHO-NPSR cells, cAMP TR-FRET, antagonist mode; activity change, negative = inhibition: at 38.3 µM (top of the series) unless noted
# % is scaled to controls: 0 for no effect and ±100 for the full control effect; potency is read from the fitted curve at half-maximal effect; tags tell the direction and shape of the fitted curve.
SMILES,Potency,"activity change, negative = inhibition"
CCn1c(SCc2ccccc2)nnc1C1CCN(S(=O)(=O)c2ccc(OC)cc2)CC1,"inconclusive [inhibitor, single point]",–
CCOC(=O)N1CCN(CC(O)COc2ccc(OC)cc2C(C)(C)C)CC1 (centres undefined),–,inactive: 4.85%
Cn1c(C23CC4CC(CC(C4)C2)C3)n[nH]c1=S,–,inactive: 2.5%
O=C(Nc1ccc2nc(-c3ccco3)c(-c3ccco3)nc2c1)N1CCCCCC1,active: 10 µM,–
O=C(CSc1ncc(C(F)(F)F)cc1Cl)N1CCN(S(=O)(=O)c2ccccc2)CC1,"inconclusive [inhibitor, single point]",–
CCOc1ccc(N2C(=O)CC(/C=C3/N(C)c4ccccc4C3(C)C)C2=O)cc1 (centres undefined),"inconclusive [inhibitor, partial curve]",–
CCC(c1nnnn1CCc1ccccc1)N(Cc1ccco1)Cc1cc2c(C)ccc(C)c2[nH]c1=O (centres undefined),"inconclusive [inhibitor, partial curve]",–
c1cnc(N2CCN(Cc3c[nH]c4ccccc34)CC2)nc1,–,inactive: 20% [at 46.1 µM]
CCOC(=O)c1sc(Nc2ccc(Br)cc2)nc1C,"inconclusive [activator, partial curve]",–
O=C1c2cccc3c([N+](=O)[O-])ccc(c23)C(=O)N1c1ccc(Cl)cn1,active: 5.01 µM,–
Cc1c(Cl)c(-c2n[nH]c(=S)n2-c2ccc(F)cc2)nn1C,"inconclusive [activator, partial curve, poor fit]",–
CCN(CC)CCOC(=O)c1ccc(N/C=C(/C#N)c2nc(-c3ccc4c(c3)OCO4)cs2)cc1,–,inactive: 4.85%
O=C(CCNc1ccc(Cc2ccncc2)cc1)c1cccc([N+](=O)[O-])c1,–,inactive: -1.17%
CCOC(=O)c1c(NC(=O)/C=C/C(=O)O)sc(C)c1-c1ccc(C)c(C)c1,"inconclusive [activator, partial curve]",–
C(=N\n1cnnc1)/c1ccc(OCc2cccc3ccccc23)cc1,"inconclusive [inhibitor, single point]",–
Cc1nnsc1C(=O)NNc1ccc(C(C)C)cc1,–,inactive: -12.1%
COc1cc(S(=O)(=O)N2CCC(c3nc4ccccc4s3)CC2)ccc1S(=O)(=O)NC1CCCC1,–,inactive: -7.46% [at 46.1 µM]
N#Cc1ccccc1Sc1ccccc1C(=O)OCC(=O)N1CCN(C(=O)c2ccco2)CC1,–,inactive: -8.48% [at 46.1 µM]
O=C(Nc1ccc2c(c1)OCCO2)C1CCN(S(=O)(=O)Cc2ccccc2)CC1,"inconclusive [inhibitor, single point]",–
Cn1c(=O)cc(SCC(=O)NCC2CCCO2)c2ccc(Cl)cc21 (centres undefined),active: 10 µM,–
CCOC(=O)c1cc(C)sc1NC(=O)c1ccc(Cl)s1,"inconclusive [inhibitor, partial curve]",–
CCOC(=O)C(C(C)=O)c1c(Br)c(O)c(O)c2c(C(=O)c3ccc(C)cc3)coc12 (centres undefined),"inconclusive [inhibitor, single point]",–
Cc1c(Nc2cc(Cl)c3nonc3c2[N+](=O)[O-])c(=O)n(-c2ccccc2)n1C,active: 6.31 µM,–

SMILES,Potency,"activity change, negative = inhibition"
Cc1nn(-c2ccccc2)c(C)c1-c1nnc(-c2c(C)nn(-c3ccccc3)c2C)o1,"inconclusive [activator, partial curve]",–
O=C1NN=C(c2ccc(Cl)cc2)CC1c1cccc(Cl)c1 (centres undefined),"inconclusive [inhibitor, single point]",–
COc1ccc(-c2nc(C#N)c(NCc3ccc(C)cc3)o2)cc1OC,"inconclusive [inhibitor, single point]",–
CCOC(=O)CNS(=O)(=O)c1cc(-c2n[nH]c(=O)c3ccccc23)ccc1C,"inconclusive [inhibitor, partial curve, poor fit]",–
O=C(Nc1ccc(-c2nc3ccccc3o2)cc1)c1ccc2c(c1)OCO2,"inconclusive [inhibitor, single point]",–
O=C(/C=C/c1ccccc1)CC(=O)c1ccccc1O,–,inactive: -11.3%
Cc1ccc(-n2nnc3c(=O)n(Cc4cccc(C)c4)cnc32)cc1,–,inactive: -16.4% [at 46.1 µM]
S=c1[nH]nc(-c2ccc(Cl)cc2Cl)n1Cc1ccccc1,–,inactive: -18.2%
CCOC(=O)c1c(NC(=O)CSc2nc3ccccc3c(=O)n2-c2ccccc2)sc(C(C)=O)c1C,"inconclusive [inhibitor, single point]",–
CC(C)(C)N1C(=O)c2ccc(C(=O)NCc3ccco3)cc2C1=O,–,inactive: -2.27% [at 46.1 µM]
CC1=CC(C)(C)N(S(=O)(=O)c2ccc(C)cc2)c2cc(C)ccc21,"inconclusive [activator, full curve]",–
COc1ccc(C(=O)N2c3ccccc3C(=O)OC2c2ccc3c(c2)OCO3)cc1 (centres undefined),"inconclusive [inhibitor, single point]",–
O=C(/C=C/c1ccc(O)c(O)c1)c1ccccc1O,"inconclusive [activator, single point]",–
CCCC(=O)C1=C(O)C(C(=O)OC)C(C)(C)CC1=Nc1ccc(Br)cc1 (centres undefined),"inconclusive [activator, partial curve]",–
Cc1[nH]c2ccccc2c1CCN(Cc1cccs1)C(=S)Nc1ccccc1,–,inactive: -40.9%
COc1ccc(NS(=O)(=O)c2ccc3oc(Nc4ccc5c(c4)OCCO5)nc3c2)cc1,"inconclusive [inhibitor, full curve, poor fit]",–
O=C(Nc1cccc(F)c1)c1ccc(-c2ccccc2C(F)(F)F)o1,–,inactive: -8.66%
O=C1/C(=C\c2ccco2)CCC/C1=C\c1ccco1,–,inactive: -48.6%
O=C(CCCn1c(=S)[nH]c2cc3c(cc2c1=O)OCO3)N1CCN(c2ncccn2)CC1,"inconclusive [inhibitor, single point]",–
CC1CCN(c2ccccc2NC(=S)NC(=O)c2cccs2)CC1,"inconclusive [inhibitor, single point]",–
Cc1cc(C)c(C#N)c(SCCS(=O)(=O)Cc2ccc(Cl)cc2)n1,"inconclusive [inhibitor, single point]",–
CCN(CC)S(=O)(=O)c1ccc(N2CCOCC2)c(NC(=O)c2cccc(C#N)c2)c1,–,inactive: -8.1%
CC(C)NC(=O)COC(=O)c1ccc(S(=O)(=O)N2CCCC2)cc1,–,inactive: 0.618%

SMILES,Potency,"activity change, negative = inhibition"
Cc1cc(-c2ccc(Cl)cc2)c(C#N)c(N)n1,"inconclusive [activator, single point]",–
CCOC(=O)c1c(NC(=O)C(=O)N/N=C/c2ccccc2OC)sc2c1CCCCC2,–,inactive: -19.7% [at 46.1 µM]
C=CCCC(=O)Nc1nc(C)c(-c2csc(Nc3ccc(Cl)cc3Cl)n2)s1,"inconclusive [inhibitor, partial curve, poor fit]",–
O=Nc1c(-c2cccc([N+](=O)[O-])c2)nc2ncccn12,"inconclusive [activator, partial curve]",–
O=C(CSc1nc2ccccc2[nH]1)Nc1ccc(F)c(F)c1,"inconclusive [inhibitor, single point]",–
COc1nc(-c2ccccc2)ncc1S(=O)(=O)c1ccccc1,–,inactive: -32.1%
COc1ccc(C2Nc3ccccc3C(=O)N2Cc2ccco2)cc1CN1C(=O)c2ccccc2C1=O (centres undefined),"inconclusive [inhibitor, partial curve]",–
CCCCn1c(NS(=O)(=O)c2ccc(C)cc2)c(S(=O)(=O)c2ccccc2)c2nc3ccccc3nc21,"inconclusive [activator, partial curve]",–
N#CCCN1CCN(C(=S)c2ccc(-c3cc(Cl)ccc3Cl)o2)CC1,"inconclusive [inhibitor, partial curve]",–
N#CCCN1CCN(C2=NC(=O)C(=C3CCCCC3)S2)CC1,active: 20 µM,–
CC(=O)Nc1ccc(C(=O)OCC(=O)Nc2ccccc2Sc2ccccc2)cc1,–,inactive: 6.05%
COc1ccc(-n2c(COc3ccc(Cl)cc3)nnc2SCc2ccc(C#N)cc2)cc1,"inconclusive [inhibitor, partial curve]",–
C=CCn1c(SCC(=O)Nc2ccc3c(c2)OCO3)nnc1-c1cc(Br)ccc1O,"inconclusive [inhibitor, partial curve, poor fit]",–
COc1ccc(-c2noc(CN(C)CCC3CCCCO3)n2)cc1 (centres undefined),–,inactive: -2.24%
O=C(NC(=S)Nc1cccc(Cl)c1N1CCCC1)c1ccc(-c2cccc([N+](=O)[O-])c2)o1,"inconclusive [inhibitor, single point]",–
O=C(CN(C(=O)Cn1nnc(-c2ccccc2F)n1)c1cccc2c1CCCC2)NCc1ccccc1,"inconclusive [inhibitor, partial curve, poor fit]",–
O=C(Nc1ccccc1)c1cc([N+](=O)[O-])ccc1NCc1cccnc1,"inconclusive [inhibitor, partial curve]",–
COc1ccc(Cc2noc(CN(C)CC(O)c3ccccc3)n2)cc1OC (centres undefined),–,inactive: -0.342%
Cc1cc(C)n(Cc2ccc(Cl)cc2Cl)c(=O)c1S(=O)(=O)c1ccccc1,"inconclusive [inhibitor, full curve, poor fit]",–
CCO[C@@H]1OC(C(=O)N2CCN(Cc3ccc4c(c3)OCO4)CC2)=C[C@H](c2ccc(C(F)(F)F)cc2)[C@H]1CCCO,"inconclusive [activator, partial curve]",–
CC(=O)OCC(=O)N1CCN(c2ccc([N+](=O)[O-])cc2)CC1,–,inactive: 4.94%
CCc1cc2ccc(C)cc2nc1SCC(=O)c1ccc(NC(C)=O)cc1,"inconclusive [inhibitor, full curve, poor fit]",–
O=C(c1ccc(OCCN2CCCCC2)cc1)c1c(-c2ccc(O)cc2)sc2cc(O)ccc12,"inconclusive [inhibitor, partial curve, poor fit]",–
